In ChEMBL document CHEMBL4888484, “Replenishing the malaria drug discovery pipeline: Screening and hit evaluation of the MMV Hit Generation Library 1 (HGL1) against asexual blood stage Plasmodium falciparum ,using a nano luciferase reporter read-out” (2022):
Screen size: about 150,000 compounds; about 540 (0.36%) showed an effect of 50% or more. Some of the results follow.

The compounds below were run on Plasmodium falciparum (assay: Primary screen in NF54 nanoGlo assay, in single point, at 2uM, 72h; a lower Z score goes with more inhibition). Details: timepoint 72 hour.
Format: functional, Erythrocyte

| Structure (SMILES) | % Inhibition [%] | Z score |
| --- | --- | --- |
| CN(C)c1ccc(-n2ccnc2-c2cn(C3CCNCC3)nn2)cc1 | -1 | 0.26 |
| Cn1cc(S(=O)(=O)N2CCCN(C(=O)Cc3ccsc3)CC2)cn1 | -11 | 1.75 |
| CC(C)N(C)Cc1ccccc1CNC(=O)c1cn(C(C)(C)C)nn1 | 5 | -0.62 |
| CC(C)(CN(C(=O)C1CCCOC1)C1CC1)NC(=O)C1CCCOC1 (stereo unspecified) | -2 | 0.19 |
| Cc1nc2ccc(-n3c(C)ccc3C)cc2s1 | -14 | 2.42 |
| CCc1ccc(NC(=O)[C@H]2C[C@H]3CCCN3[C@@]23C(=O)N(C)c2ccccc23)cc1 | -18 | 1.78 |
| CCCS(=O)(=O)Nc1ccc(S(=O)(=O)N(C)C(C)(C)C#N)cc1F | -12 | 1.9 |
| CC(C)(C)CN1CCC[C@@]2(CCN(Cc3ccc4c(c3)OCCO4)C2)C1 | -11 | 1.66 |
| COC1CC(OC(=O)c2csc(NC(C)=O)n2)C1 (stereo unspecified) | -5 | 0.95 |
| CCn1nnc(C)c1CN[C@@H](C)COc1cccc(C)c1 | -6 | 0.75 |
| CC(=O)Nc1ccnn1C[C@H]1CCOC1 | -4 | 0.55 |
| CC(C)Oc1ccc(S(=O)(=O)Nc2nnc(C(F)F)[nH]2)cc1 | -1 | 0.24 |
| Cc1n[nH]c2nc3c(c(O)c12)c(=O)n(C)c(=O)n3C | -39 | 4.56 |
| NC(=O)c1ccc(CNC(=O)[C@@H]2CCCc3ccccc32)cn1 | 2 | -0.28 |
| Cc1cn(-c2c(F)cccc2F)nc1C(=O)NCC1CCN(C)CC1 | 6 | -0.71 |
| CC(C)n1[nH]c(=O)c2c(-c3ccccc3)c3c(nc21)[nH]c(=O)n3C | -29 | 3.44 |
| CC(C)(C)C(=O)N1CCC(O)(CS(=O)(=O)Cc2ccc(Cl)cc2)CC1 | 36 | -4.63 |
| CC(C(=O)NC1CCOc2ccccc21)N1CCC(CO)C(O)C1 (stereo unspecified) | -10 | 1.06 |
| O=C(O)C(CNC(=O)[C@H]1C[C@H]2C=C[C@@H]1CC2)CC1CC1 (stereo partly specified) | -12 | 1.2 |
| CCCS(=O)(=O)N[C@@H](C)c1cnc(N2CCCCCCC2)nc1C | -17 | 1.51 |
| CN(C)CCN(Cc1ccccc1F)S(=O)(=O)N(C)C | -9 | 1.55 |
| COc1cc(F)c(-c2nccn2C2CCN(Cc3cccnc3)CC2)c(F)c1 | -11 | 1.7 |

| Structure (SMILES) | % Inhibition [%] | Z score |
| --- | --- | --- |
| O=C(Nc1nccs1)[C@H](Oc1ccccc1Br)c1ccccc1 | -18 | 1.99 |
| O=C(Cc1ccsc1)NC1CCN(c2nnc3ccc(Cl)cn23)CC1 | 30 | -3.42 |
| O=C(Nc1nnc(-c2ccoc2)[nH]1)c1ccc(Cl)cc1Cl | -3 | 0.4 |
| CC(C)Cc1ncc(CNC(=O)N2CCC[C@H]2C(C)(C)O)s1 | -1 | 0.1 |
| CN(C)C(=O)[C@H](CCC(N)=O)NC(=O)OCc1ccccc1 | -13 | 1.76 |
| COc1ccc(N2CCOCC2)cc1NC(=O)c1ccc(Cl)cc1 | -8 | 1.07 |
| Cn1ncc2c(N(Cc3cccc(F)c3)C3CC3)ncnc21 | 5 | -0.74 |
| CCCNC(=O)NC(=O)COc1ccc(C#N)c(F)c1 | -10 | 1.49 |
| CC(NC(=O)C1CC1c1ccccc1Br)c1nncn1C (stereo unspecified) | -11 | 2.14 |
| Cc1cc(F)ccc1CNC[C@H]1CN(C2CC2)CCO1 | -4 | 0.46 |
| CC(C)N(CC(=O)N1CCNCC1)C(=O)c1cccc(F)c1 | 0 | -0.03 |
| CC(C)c1nccn1CC(=O)NC[C@H]1CCCO1 | 4 | -0.73 |
| O=C(NC[C@@H]1COc2ccccc2C1)NC1CCCC1 | -12 | 1.63 |
| Cc1n[nH]c(C)c1[C@H](C)NC(=O)CCn1nnnc1C | -4 | 0.68 |
| O=c1n(Cc2ccc3c(c2)OCO3)nc2ccc(-c3ccccc3)nn12 | -4 | 0.5 |
| COC(=O)NCC(=O)Nc1cc(Cl)c(C)cc1Br | -5 | 0.99 |
| CC[C@H](c1ccccc1)c1nc(-c2ccc3nnn(C)c3c2)no1 | -7 | 0.74 |
| O=S(=O)(Cc1ccccc1)NCC1(CCO)CCCCC1 | -13 | 1.44 |
| O=C(Nc1ccccc1C(=O)NC1CC1)c1ccc2ccccc2n1 | -8 | 0.68 |
| CS(=O)(=O)NCCCc1ccc(Cl)cc1 | 9 | -1.07 |
| O=C(NC1CCOCC1)c1ccc(Oc2ccc(C(F)(F)F)cn2)cc1 | 0 | -0.03 |
